According to PubChem BioAssay AID504832 (National Center for Advancing Translational Sciences (NCATS), 2011):
The campaign covered roughly 310,000 compounds. About 18,000 (5.8%) were called active. The inconclusive results got no clear call from the source; some entries with a clear call stand among them for comparison. Calls follow the shape of the dose curve; as a rule, active = well fitted inhibition curve with a large enough effect; inconclusive = small, poorly fitted or top-dose-only effect, or another doubt; inactive = no such curve, though single readings can be large or run the other way. Potencies of inconclusive entries are left out as doubtful fits. Non-standard residues stand in square brackets, D forms with d. Residues, ends and D or L forms follow the SMILES beside them. ξ: configuration not given here. *: point of attachment. Tos = Cc1ccc(S(=O)(=O)*)cc1; Inp = O=C(O)C1CCNCC1; ξP = O=C(O)C1CCCN1

Test: Primary qHTS for delayed death inhibitors of the malarial parasite plastid, 48 hour incubation
Details: P. falciparum luciferase growth in erythrocytes; series mostly up to 28.7 µM; activity change, negative = inhibition: at the top concentration
Outline: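 Read-out is firefly luciferase luminescence from an integrated reporter in P. falciparum, so falling signal marks reduced parasite growth. Infected erythrocytes were at 2% hematocrit and 0.1% parasitemia (final) in Albumax-supplemented RPMI 1640.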
% is scaled to controls: 0 for no effect and ±100 for the full control effect; potency is read from the fitted curve at half-maximal effect; tags tell the direction and shape of the fitted curve.

Q: Which “activity change, negative = inhibition” value does the source give for `O=C(COc1cc(F)ccc1[N+](=O)[O-])NCCCc1ccccc1` here?
A: inactive: -1.4%

Q: Which “activity change, negative = inhibition” value does the source give for `CCCCOC(=O)CSc1nnc(N)s1` here?
A: inactive: 13.1%

Q: For `CCCCNc1nc2ccccc2n1CC(=O)N1CCc2ccccc2C1`, which Potency is on record?
A: active: 11.7 µM

Q: Which Potency does the source give for `CNC(=S)N(CCc1c(C)[nH]c2ccc(OC)cc12)Cc1ccco1` here?
A: inconclusive [inhibitor, single point]

Q: For `COc1ccc(S(=O)(=O)N2CCCC(C(=O)N3CCN(c4ccccc4)CC3)C2)cc1Cl` (centres undefined), which Potency is on record?
A: inconclusive [inhibitor, single point]

Q: With `COc1ccccc1N1CCN(C(=O)C(Sc2ccccc2)c2ccccc2)CC1` (centres undefined) as the molecule, how does the Potency read?
A: active: 13.1 µM

Q: Which Potency does the source give for `CC(C)NC(=O)COc1coc(CN2CCN(c3ccccc3F)CC2)cc1=O` here?
A: inconclusive [inhibitor, single point]

Q: Which Potency does the source give for `CCOc1cc(C(=O)NCC(=O)N/N=C/c2sccc2C)cc(OCC)c1OCC` here?
A: inconclusive [inhibitor, partial curve]

Q: Which Potency does the source give for `COc1ccc(C(=O)N2CCN(c3ccccc3Cl)CC2)cc1S(=O)(=O)NC1CC1` here?
A: inconclusive [inhibitor, partial curve, poor fit]

Q: With `COc1cccc(-c2ccc(C#N)c(OC(=O)c3c(Cl)cccc3Cl)n2)c1` as the molecule, how does the Potency read?
A: inconclusive [inhibitor, single point]

Q: For `CCN(CC(=O)Nc1ccc(NC(C)=O)cc1)C(=O)CSC(c1ccccc1)c1ccccc1`, which Potency is on record?
A: inconclusive [inhibitor, single point]

Q: Which “activity change, negative = inhibition” value does the source give for `CC(=O)Nc1sc2c(c1C(N)=O)CCN(Cc1ccccc1)C2` here?
A: inactive: 1.34%

Q: With `Cc1ccc(C(N)=O)cc1S(=O)(=O)Nc1cccc(C)c1C` as the molecule, how does the Potency read?
A: inconclusive [inhibitor, partial curve, poor fit]

Q: Which Potency does the source give for `O=C(Nc1ccccc1-c1ccccc1)NC1CC2CCCC(C1)N2Cc1ccc(F)cc1` (centres undefined) here?
A: active: 11.7 µM

Q: Which “activity change, negative = inhibition” value does the source give for `COc1cc(C(C)=O)ccc1OCC(=O)OCCCOC(=O)COc1ccc(C(C)=O)cc1OC` here?
A: inactive: -2.39%

Q: For `Cc1ccc(NC(=O)N2CCC(C(=O)Nc3ccc(C)cc3C)CC2)cc1`, which “activity change, negative = inhibition” value is on record?
A: inactive: 12.6%

Q: For `COc1ccc(/C=N/OC(=O)Nc2ccccc2)cc1[N+](=O)[O-]`, which “activity change, negative = inhibition” value is on record?
A: inactive: 47.4%

Q: With `Cc1ccc(S(=O)(=O)N2CCC(C(=O)N3CCCC3C(=O)N[C@@H](CC(C)C)C(=O)NCC(N)=O)CC2)cc1` (stereo partly drawn) ({Tos-Inp}-[ξP]-Leu-Gly-NH2) as the molecule, how does the Potency read?
A: inconclusive [inhibitor, partial curve, poor fit]

Q: With `O=S1(=O)C=C(N2CCOCC2)c2ccccc21` as the molecule, how does the “activity change, negative = inhibition” value read?
A: inactive: 49.6%

Q: With `O=C(CN1C(=O)CCOc2ccccc21)Nc1ccc(Cl)c(S(=O)(=O)N2CCOCC2)c1` as the molecule, how does the Potency read?
A: inconclusive [inhibitor, single point]

Q: With `CCOC(=O)C1(c2ccccc2)NC(c2ccccc2C)C2C(=O)N(c3ccc4c(c3)OCO4)C(=O)C21` (centres undefined) as the molecule, how does the Potency read?
A: inconclusive [inhibitor, single point]

Q: Which “activity change, negative = inhibition” value does the source give for `Cc1c(Cl)cccc1NC(=O)CCN1C(=O)C2CC=CCC2C1=O` (centres undefined) here?
A: inactive: 12.6%

Q: Which “activity change, negative = inhibition” value does the source give for `CCOC(=O)c1ccc(NS(=O)(=O)c2ccc3c(c2)NC(=O)CCS3)cc1` here?
A: inactive: -16.4%

Q: For `COc1cc(C(=O)NC2(C(F)(F)F)NC(=O)N(CCCc3ccccc3)C2=O)cc(OC)c1OC` (centres undefined), which Potency is on record?
A: inconclusive [inhibitor, single point]

Q: Which Potency does the source give for `CCc1ccc(NC(=O)C2CCN(S(=O)(=O)c3ccc4c(c3)NC(=O)C(C)S4)CC2)cc1` (centres undefined) here?
A: inconclusive [inhibitor, partial curve]

Q: With `Cc1cc(C(=O)Nc2sc3c(c2C#N)CCCC3)no1` as the molecule, how does the “activity change, negative = inhibition” value read?
A: inactive: 295%

Q: Which Potency does the source give for `CCCCN(CCCC)c1cn[nH]c(=O)c1Cl` here?
A: inconclusive [inhibitor, partial curve, poor fit]

Q: Which “activity change, negative = inhibition” value does the source give for `CCc1nc2ccccc2n1Cc1ccccc1F` here?
A: inactive: -15.8%

Q: With `COc1ccc(CN2CCN(S(=O)(=O)c3ccc(NC(C)=O)cc3)CC2)c(OC)c1OC` as the molecule, how does the Potency read?
A: inconclusive [inhibitor, full curve]

Q: With `O=C1CC(N2CCN(c3ccc(S(=O)(=O)N4CCOCC4)cc3)CC2)C(=O)N1Cc1ccccc1` (centres undefined) as the molecule, how does the Potency read?
A: inconclusive [inhibitor, partial curve]

Q: For `O=C(Nc1cccnc1)c1cn(-c2ccccc2)nc1-c1cccs1`, which Potency is on record?
A: active: 0.586 µM

Q: For `CN(CC(=O)Nc1ccc(F)cc1)CC(=O)Nc1ccc(Cl)c(S(=O)(=O)N2CCOCC2)c1`, which Potency is on record?
A: inconclusive [inhibitor, partial curve]

Q: With `Nc1c(C(=O)CSc2n[nH]c(-c3ccccc3)n2)c(=O)[nH]c(=O)n1C1CC1` as the molecule, how does the “activity change, negative = inhibition” value read?
A: inactive: 1.63%

Q: Which “activity change, negative = inhibition” value does the source give for `CCN(Cc1ccccc1)C(=O)CCS(=O)(=O)c1ccc2c(c1)CCN2C(C)=O` here?
A: inactive: -12.7%

Q: With `CCOC(=O)C1(Cc2ccccc2C)CCCN(C(=O)c2ccc(COC)o2)C1` (centres undefined) as the molecule, how does the Potency read?
A: inconclusive [inhibitor, single point]

Q: For `CCN(CC)CCN(C(=O)CCS(=O)(=O)c1ccccc1)c1nc2cc(C)cc(C)c2s1`, which Potency is on record?
A: inconclusive [inhibitor, partial curve, poor fit]

Q: Which Potency does the source give for `CCOC(=O)C1CCN(C(c2cc3c(C)ccc(C)c3[nH]c2=O)c2nnnn2C2CCCCC2)CC1` (centres undefined) here?
A: inconclusive [inhibitor, partial curve]

Q: With `COC(=O)[C@@H](NC(=O)NCc1ccccc1Cl)C(C)C` as the molecule, how does the “activity change, negative = inhibition” value read?
A: inactive: 8.56%

Q: Which Potency does the source give for `Cc1cccc(NS(=O)(=O)c2cccc(C(=O)NCC(c3ccco3)N3CCCCC3)c2)c1` (centres undefined) here?
A: inconclusive [inhibitor, partial curve]

Q: With `O=c1[nH]c(=S)[nH]c(O)c1N=Nc1ccc(S(=O)(=O)N2CCc3ccccc32)cc1` as the molecule, how does the Potency read?
A: inconclusive [inhibitor, single point]

Q: Which Potency does the source give for `COc1ccc(NC(=S)NCCc2ccccc2OC)c(OC)c1` here?
A: inconclusive [inhibitor, partial curve]

Q: Which Potency does the source give for `COCCn1c(-c2ccc(OC)cc2)cnc1N` here?
A: inconclusive [inhibitor, single point]

Q: For `COc1ccc(-c2nc3c(c(=O)c4ccccc4n3C)c(=O)n2Cc2ccccc2)cc1`, which “activity change, negative = inhibition” value is on record?
A: inactive: -19.5%

Q: Which “activity change, negative = inhibition” value does the source give for `Cc1nn(C(C)C(=O)NCCN2CCCC2)c(=O)c2c1sc1ccccc12` (centres undefined) here?
A: inactive: -4.54%
